Laboratory results reported in the supplement of paper PMC3334620.
Whole data set: some 33,000 sequences, median “E-score (-0.5 to 0.5)” near -0.017, cut for the highest 2% near 0.3. The list shows a part of the results.

Molecular target: T1, Sut1 (UniProt P53032)
T1 sequence: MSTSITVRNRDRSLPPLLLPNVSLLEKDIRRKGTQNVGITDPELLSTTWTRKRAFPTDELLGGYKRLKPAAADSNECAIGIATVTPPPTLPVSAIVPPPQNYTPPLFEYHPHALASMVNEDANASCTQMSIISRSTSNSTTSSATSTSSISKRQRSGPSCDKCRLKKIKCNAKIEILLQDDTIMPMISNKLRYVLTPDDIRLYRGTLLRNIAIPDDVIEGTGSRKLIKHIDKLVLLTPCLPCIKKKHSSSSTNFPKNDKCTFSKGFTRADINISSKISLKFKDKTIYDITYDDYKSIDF
Test: PBM E-score (8-mer binding enrichment) (E-score (-0.5 to 0.5)); higher = stronger / more preferred TF binding; most listed sequences are background and not binding sites
Conditions: protein concentration: 200 nM; construct: GST-full length
Procedure: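 Universal 'all 10-mer' protein binding microarrays (Agilent AMADID 015681) probed with GST-tagged S. cerevisiae TFs (full-length or DBD) made by in vitro transcription/translation (PURExpress), about 100-200 nM. Bound TF was detected with fluorescent anti-GST. Each ungapped 8-mer (which stands for itself and its reverse complement) is scored by the PBM enrichment score (E-score), a modified Wilcoxon-Mann-Whitney statistic from -0.5 to +0.5, computed with the Universal PBM Analysis Suite. Scale: above 0.35 generally sequence-specific binding.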

Sequence | PBM E-score
AGTCTCAT | 0.0486
CACATGTA | 0.0946
CCCAGTTA | -0.142
ACCGCCCG | -0.16
AAGTCGGG | -0.0631
ATAATATC | 0.291
GACTTTGA | 0.0429
CCCAGTGA | -0.194
CGCAACAC | -0.0862
GCGCAACC | -0.15
CCGATATA | 0.183
GTTCCCAA | -0.0964
CGCTAGCC | -0.212
CTCCTCAA | -0.0732
AATTATTA | 0.305
CTCCCCAA | -0.148
CCGTTCAG | 0.0537
AGTTGCCG | -0.0439
CTTAGGCC | -0.18
ATCTAAAG | 0.108
ACGTCTAA | 0.0309
CCTTTTCG | 0.0621
GCGCATAC | -0.179
GGTCTAGA | -0.118
CATTACGG | -0.0054

Sequence | PBM E-score
CACGGTAA | 0.0752
AAGAGTGG | -0.205
GGAACCAA | 0.00579
GATCCCCC | -0.213
ACACAGGC | -0.0837
GAACGTTA | -0.102
GGATACTA | -0.064
CCGCGTAG | -0.117
TAACGCAA | -0.0186
GATGATGC | -0.181
GTGCCATA | -0.132
GCTAAGCC | -0.123
CCGTCCAG | -0.098
CTCCGGAC | 0.473
AACGCGCG | 0.148
GGCAGCGA | -0.111
GGGATACA | -0.064
ATGGAAAT | 0.18
GGTCTCGA | 0.00072
GACGGTCA | -0.253
ACCGAGGC | -0.207
AGAAATCA | 0.226
CCCCTAGA | -0.257
CCACACAC | 0.0627
GTCACAAC | -0.0323

Sequence | PBM E-score
CGACGGAA | 0.116
GCGAGGAC | -0.19
CTTGCTTC | 0.128
AGTTCATA | 0.049
AAGCACCG | -0.0914
GCGCCTGA | -0.0731
CACTGGAC | -0.0388
ATAGGGAT | 0.0394
TCCCGGGA | -0.0502
ACTACTTA | 0.139
CTCTGGAA | -0.202
ACAACAAA | 0.19
CCTCGGCA | -0.0698
CCGAGATA | 0.239
CGAGCAAA | -0.0663
AAACCGCG | 0.266
GGCCAGAA | -0.0485
CAGACGAA | 0.298
CGCTTCGA | 0.0968
GACAGATA | 0.0695
GTCATTAA | 0.196
CAGCTACG | -0.289
CGCGGTCC | 0.0314
CATGCTTC | -0.0576
AAATGAAC | 0.101

Sequence | PBM E-score
GGCAGTTA | -0.137
CAACGGCA | -0.0932
GATCGCAA | -0.0316
GCCACGTA | -0.239
CCCGCAGC | -0.0461
GGGAAATA | 0.0403
CTATCTGC | -0.0665
ATGGTAAC | 0.0287
CCATCGAC | -0.103
GAACGTCC | -0.0131
AACTATGA | 0.135
TAGAAAAA | 0.19
AGGCCATA | -0.255
ACTTAGTG | 0.0253
ATCGATAC | 0.0483
AGGATAAC | -0.0991
CACCTGGG | -0.292
AGTGATGG | -0.054
AGCCACGA | -0.106
GTTGGTTA | 0.0973
AGTTTACG | 0.103
AGTCTTAT | 0.0262
CTACGCAA | -0.0133
CCTAGCAG | -0.284
CAATGATA | 0.144

Sequence | PBM E-score
CCTCACAG | -0.16
GTTTGGTA | 0.178
AGTTCACC | 0.101
GAGGCCAC | -0.125
CGTGATAA | 0.0521
ATTCTTCG | 0.026
AAAGCCTT | 0.0186
CTGCATAA | 0.0577
GTGGCCCA | -0.22
AGGTAATA | 0.239
ATCCCTCG | -0.0959
AGGCCACA | -0.278
CTGATCGA | -0.17
AATACAGC | 0.085
CAAAAGCC | -0.0886
CGATTGTC | 0.104
TCCCCAAA | 0.0678
AGGTCGTG | -0.236
GAAGGTAC | -0.197
ACTTCATC | 0.145
CCGCGGCG | 0.0767
CCAGTGAA | 0.00618
GACGCCTA | -0.302
AAGACTCG | 0.0602
CAAGACCC | -0.304

Sequence | PBM E-score
CACGCTGA | -0.124
CAGCGCAG | -0.114
AGCACAAC | 0.109
CTGGTTTC | -0.0186
ACCGAACT | 0.126
AAATTGTG | 0.0696
AAGGCTGA | -0.202
AAGAACAC | 0.0781
CAGTGCAC | -0.0523
GACCCCAC | -0.154
AAAAACAC | 0.108
ACCTGACC | -0.301
TCAATGGA | -0.004
GAGAACCC | -0.169
GGTCGTGA | -0.2
ATACTTTG | 0.119
AATTATCT | 0.207
AGATGCAG | -0.255
CTCTTATA | 0.148
GTAGCGTA | -0.0771
AGTGTGCA | -0.0527
ACGTTGAT | 0.116
CTGGCGGC | 0.146
CAAGACGA | 0.0668
ACAGCCCA | -0.267

Sequence | PBM E-score
ATTTGAGC | 0.105
CATAGGTA | -0.118
ATGACATA | 0.055
CGATGCAA | 0.0127
CCGACCGG | 0.0937
ATTCGATG | -0.0901
ATCGCTCA | -0.115
GGGAGCCC | -0.286
AGCCATGA | 0.0293
AACATTTA | 0.187
CAGATTAG | -0.0969
TAACTTCA | 0.0919
CTGTTGTA | 0.0819
AAAGAACA | 0.276
GACAACAA | 0.106
AGCGGAAG | 0.0483
AGTGAAGA | -0.0804
GAGTGCAC | -0.129
AATTTTCC | 0.238
AGAGATAT | 0.00084
CCTATAAA | -0.0583
CGGGAAAA | 0.0862
